Results taken from article PMC4336329 (PLoS ONE, 2015).
Screen size: about 310,000 compounds; about 14,000 (4.5%) showed an effect of 50% or more. Effects have a minus sign here. Some of the results follow.

Target: human ether-à-go-go-related gene (hERG) potassium channel (human, UniProt Q12809)
Assay: primary screen, population patch clamp on CHO cells stably expressing hERG
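Also: peak tail current of the secondary pulse compared with the same well before compound.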

Chain of human ether-à-go-go-related gene (hERG) potassium channel (Q12809 whole entry, looked up): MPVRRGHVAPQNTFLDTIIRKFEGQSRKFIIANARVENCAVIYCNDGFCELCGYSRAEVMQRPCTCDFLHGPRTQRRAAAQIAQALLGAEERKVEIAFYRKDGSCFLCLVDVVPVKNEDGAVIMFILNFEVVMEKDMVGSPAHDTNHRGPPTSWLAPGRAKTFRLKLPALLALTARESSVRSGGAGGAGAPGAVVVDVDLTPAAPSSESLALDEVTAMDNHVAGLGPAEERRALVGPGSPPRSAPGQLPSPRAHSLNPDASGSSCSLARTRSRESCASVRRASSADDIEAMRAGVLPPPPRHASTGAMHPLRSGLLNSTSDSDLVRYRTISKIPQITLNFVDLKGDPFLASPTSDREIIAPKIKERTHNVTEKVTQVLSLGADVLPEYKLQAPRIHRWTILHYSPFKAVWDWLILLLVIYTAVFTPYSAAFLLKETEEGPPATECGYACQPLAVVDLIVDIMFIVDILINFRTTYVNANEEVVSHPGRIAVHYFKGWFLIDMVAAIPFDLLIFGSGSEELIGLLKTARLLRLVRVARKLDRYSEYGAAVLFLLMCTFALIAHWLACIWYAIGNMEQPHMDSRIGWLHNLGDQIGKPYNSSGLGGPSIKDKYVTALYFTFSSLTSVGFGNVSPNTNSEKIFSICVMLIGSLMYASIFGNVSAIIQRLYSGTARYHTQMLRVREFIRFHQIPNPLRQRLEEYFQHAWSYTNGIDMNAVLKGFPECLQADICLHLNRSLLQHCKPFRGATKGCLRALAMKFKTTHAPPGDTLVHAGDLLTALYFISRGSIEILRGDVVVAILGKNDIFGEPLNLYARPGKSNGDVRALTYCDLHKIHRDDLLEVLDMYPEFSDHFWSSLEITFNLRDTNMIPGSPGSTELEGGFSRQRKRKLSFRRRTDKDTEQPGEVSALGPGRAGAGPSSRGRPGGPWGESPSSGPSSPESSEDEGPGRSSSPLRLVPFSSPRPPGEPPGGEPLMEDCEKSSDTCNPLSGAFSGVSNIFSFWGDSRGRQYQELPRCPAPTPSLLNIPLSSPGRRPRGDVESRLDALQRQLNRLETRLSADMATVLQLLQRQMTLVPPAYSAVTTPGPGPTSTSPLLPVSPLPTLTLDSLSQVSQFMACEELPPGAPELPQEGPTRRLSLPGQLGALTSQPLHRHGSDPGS

| SMILES | hERG current change (%, negative = inhibition) at 10uM |
| --- | --- |
| Nn1c(SCc2ccc(F)cc2)nnc1-c1ccncc1 | -3.1% |
| Cc1cccc(S(=O)(=O)Nc2ccc(-n3c(C)nc4ccccc4c3=O)cc2)c1 | -55.9% |
| CSCCC(NS(=O)(=O)c1ccccc1F)C(=O)OCc1ccccc1Cl (stereo not shown) | -16.3% |
| CCCOc1ccc(-c2c(=O)n(OCC(=O)OCC)c3ccccc3[n+]2[O-])cc1 | -4.43% |
| c1ccc(-c2nc(CSc3nnc(-c4cccs4)o3)cs2)cc1 | -9.61% |
| CCN(CC)CCn1c(=N)n(CCO)c2ccccc21 | 5.99% |
| CCOC(=O)C(=O)/C(=C\N(C)C)c1onc(-c2c(Cl)cccc2Cl)c1C(=O)OC | -21.2% |
| Cc1ccc(/C=N/NC(=O)c2cccc(NC(=O)c3ccccc3Cl)c2)o1 | -20.8% |
| CC(Cc1cccs1)N(Cc1ccc(Cl)cc1)C(=O)c1ccncc1 (stereo not shown) | -17% |
| CC[C@@H](NS(=O)(=O)c1ccc(C)cc1)C(=O)Oc1ccc2c3c(c(=O)oc2c1)CCC3 | -5.34% |
| O=c1oc2ccccc2cc1-c1nnc(NCc2ccco2)s1 | -14.1% |
| Cc1sc2nc(CSCC(=O)NC(C)(C)C)[nH]c(=O)c2c1C | 15.1% |
| Cc1ccc(NC(=O)C(=O)NCC2CCN(C(=O)c3cccc([N+](=O)[O-])c3)CC2)cc1 | -16.5% |
| CCNS(=O)(=O)c1ccc(CCC(=O)N2CCCC2)cc1 | 6.37% |
| COc1ccc(CNC(=O)C(c2ccco2)N(Cc2cccs2)C(=O)Cc2cccs2)cc1 (stereo not shown) | 10.6% |
| Cc1cc(C)nc(NNC2=CC(=[N+]3CCCC3)CCC2)n1.[I-] | -13.8% |
| CN1CCN(C(=O)c2cc3c(n(-c4ccccc4)c2=O)CC(C)(C)CC3=O)CC1 | 7.06% |
| COc1ccc(-c2cc(=[NH+]c3ccccc3)c3cc(C)ccc3o2)cc1.[O-][Cl+3]([O-])([O-])[O-] | 24.8% |
| CSCCC(NC(=O)c1ccco1)C(=O)NC1CCCCCC1 (stereo not shown) | 3.82% |
| CCOC(=O)c1ccc(S(=O)(=O)N2CCN(C(=O)CSc3nc4ccccc4o3)CC2)cc1 | -27.6% |
| COc1ccc(C2C=C(c3cccs3)Nc3nc(CCCO)nn32)cc1 (stereo not shown) | -57.9% |
| Cc1c(C(=O)c2ccc(Cl)c([N+](=O)[O-])c2)c2ccccn2c1CCC#N | -17.9% |
| COc1ccc(/C=C(\C#N)C(=O)Nc2cccnc2)cc1 | 8.23% |
| O=c1[nH]nc(Cc2ccc(Cl)cc2)c2ccccc12 | 8.04% |
| Cc1ccccc1Nc1nc(-c2cccnc2)cs1 | -6.7% |
| COc1ccc(N(CC(=O)NC2CCCC2)C(=O)Cn2nnc(-c3ccc(F)cc3)n2)cc1 | -43.4% |
| CC(=O)Oc1ccccc1C1=NN(C(C)=O)C(c2ccccc2)C1 (stereo not shown) | 17.5% |
| O=C(N/N=C/c1ccncc1)NC12CC3CC(CC(C3)C1)C2 | -26.6% |

| SMILES | hERG current change (%, negative = inhibition) at 10uM |
| --- | --- |
| NC(=O)c1cc2ccccc2o/c1=N\NC(=O)c1ccc(F)cc1 | -33.9% |
| CSc1ccc(CN(C)C(=O)c2cc(Cl)c3c(c2)OCCO3)cc1 | -6.04% |
| COc1ccc(-c2nc(=S)c3c(n2CCN2CCOCC2)CC(C)(C)OC3)cc1 | -1.05% |
| O=C(CCNC(=O)c1ccc([N+](=O)[O-])cc1)Nc1ccc(F)cc1 | -18.6% |
| O=C(NC(Cc1ccccc1)c1nc2ccccc2[nH]1)c1cccc([N+](=O)[O-])c1 (stereo not shown) | 4.95% |
| Cc1ccc(CN2[C@@H](CC(C)C)COCCS2(=O)=O)cc1 | -2.46% |
| O=C(N/N=C/CCc1ccccc1)c1ccccc1 | 0.383% |
| CCC(Sc1nccn1C)C(=O)Nc1nnc(C)s1 (stereo not shown) | 3.31% |
| Cc1ccccc1C(=O)O/N=C(\N)Cc1cccs1 | 15.7% |
| COc1ccc(CN2CCNC(=O)C2CC(=O)NCCCn2cccn2)c(OC)c1 (stereo not shown) | -37.4% |
| CCCCOc1ccc(/C=C/C(=O)NCCc2nc3ccccc3[nH]2)cc1 | -18% |
| CSC1=NP(=S)(SC)N2CCCC2=C1C#N (stereo not shown) | -1.65% |
| COc1ccc(CN(C)S(=O)(=O)c2nnc(NC(=O)c3ccc(C)cc3)s2)cc1OC | 22.2% |
| CCc1ccc(NC2=NC(C(=O)c3ccccc3)CC(=O)N2)cc1 (stereo not shown) | 1.94% |
| Cc1ccc(NC(=O)c2cccc(NC3=NC4CS(=O)(=O)CC4S3)c2)cc1C (stereo not shown) | -2.07% |
| Cc1ccc2cc(/C=N/NC(=O)CN3CCOCC3)c(Cl)nc2c1 | -6.51% |
| CCCCn1nnc(NC(=O)c2sc3cc(Cl)ccc3c2Cl)n1 | 15.6% |
| O=C(NCc1ccncc1)C(=O)NCC(c1ccco1)N1CCN(c2ccccc2F)CC1 (stereo not shown) | 6.13% |
| CN(C)c1ccc(/C=C2\CCC/C(=C\c3ccccc3)C2=O)cc1 | -3.43% |
| CN(C)S(=O)(=O)c1ccc(NC(=O)CN2CCCCCC2)cc1 | 46.4% |
| CCOC(=O)N1CCN(C(=O)CSc2nc(=O)n3ccccc3n2)CC1 | 7.65% |
| Nc1cccc(-c2cn3cc(C(F)(F)F)cc(Cl)c3n2)c1 | -1.24% |
| COCCN(C(=O)CSc1nnc(-c2ccc(C(C)(C)C)cc2)n1N)c1c(N)n(CC(C)C)c(=O)[nH]c1=O | 14.9% |
| CCC1CCCCN1CCCNC(=O)C1CCCN(c2nn3c(=O)cc(C)nc3s2)C1 (stereo not shown) | 12.2% |
| COc1ccc(C(=O)N2CCCN(C)CC2)cc1S(=O)(=O)N1CCCc2ccccc21 | -23.4% |
| COC(=O)c1c(-c2ccc(SC)cc2)sc2ccccc12 | 15.4% |
| CCOC(=O)C1(CCOc2ccccc2)CCN(Cc2ccc(-n3cccn3)cc2)CC1 | -84.1% |
